Laboratory results from the supplement of paper PMC8728848.
This is one part of the list.

How the values were obtained:
Assay in all cases: glycan array binding signal (z-score within array); higher = stronger binding
Conditions in all cases: glycan notation: IUPAC condensed, linker removed
[1] = molecular target: GlcNAc(b1-2)Man(a1-3)[Man(a1-3)[Man(a1-6)]Man(a1-6)][GlcNAc(b1-4)]Man(b1-4)GlcNAc(b1-4)GlcNAc
Procedure, shortened: (§1)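 Glycan array data were curated from 3228 arrays in the Consortium for Functional Glycomics database and kept only where the protein sequence was available. Glycan names were converted to IUPAC-condensed notation, and columns mapping to the same glycan were averaged. The binding signal is a within-array Z-score, averaged across arrays of the same protein sequence at different concentrations or buffers and across linkers. Negative Z-scores can be read as non-binding.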

[2] = molecular target: GlcNAc(b1-2)[GlcNAc(b1-4)]Man(a1-3)[GlcNAc(b1-2)Man(a1-6)][GlcNAc(b1-4)]Man(b1-4)GlcNAc(b1-4)GlcNAc
Procedure, shortened: as §1

[3] = molecular target: GlcNAc(b1-2)[GlcNAc(b1-4)]Man(a1-3)[GlcNAc(b1-2)[GlcNAc(b1-4)][GlcNAc(b1-6)]Man(a1-6)][GlcNAc(b1-4)]Man(b1-4)GlcNAc(b1-4)GlcNAc
Procedure, shortened: as §1

[4] = molecular target: GlcNAc(b1-2)[GlcNAc(b1-4)]Man(a1-3)[GlcNAc(b1-2)[GlcNAc(b1-6)]Man(a1-6)]Man(b1-4)GlcNAc(b1-4)GlcNAc
Procedure, shortened: as §1

GlcNAc(b1-3)Fuc = molecular target: GlcNAc(b1-3)Fuc
Procedure, shortened: as §1

GlcNAc(b1-3)Gal(b1-4)Glc = molecular target: GlcNAc(b1-3)Gal(b1-4)Glc
Procedure, shortened: as §1

[5] = molecular target: GlcNAc(b1-3)[GlcNAc(b1-6)]Gal
Procedure, shortened: as §1

[6] = molecular target: GlcNAc(b1-3)[GlcNAc(b1-6)]Gal(b1-4)GlcNAc(b1-3)[GlcNAc(b1-6)]Gal(b1-4)GlcNAc(b1-3)Gal(b1-4)Glc
Procedure, shortened: as §1

GlcNAc(b1-4)Fuc = molecular target: GlcNAc(b1-4)Fuc
Procedure, shortened: as §1

GlcNAc(b1-4)GlcNAc = molecular target: GlcNAc(b1-4)GlcNAc
Procedure, shortened: as §1

[7] = molecular target: GlcNAc(b1-4)GlcNAc(b1-4)GlcNAc
Procedure, shortened: as §1

[8] = molecular target: GlcNAc(b1-4)GlcNAc(b1-4)GlcNAc(b1-4)GlcNAc
Procedure, shortened: as §1

[9] = molecular target: GlcNAc(b1-4)GlcNAc(b1-4)GlcNAc(b1-4)GlcNAc(b1-4)GlcNAc
Procedure, shortened: as §1

[10] = molecular target: GlcNAc(b1-4)GlcNAc(b1-4)GlcNAc(b1-4)GlcNAc(b1-4)GlcNAc(b1-4)GlcNAc
Procedure, shortened: as §1

[11] = molecular target: GlcNAc(b1-4)GlcNAc(b1-4)GlcNAc(b1-4)GlcNAc(b1-4)GlcNAc(b1-4)GlcNAc(b1-4)GlcNAc
Procedure, shortened: as §1

[12] = molecular target: GlcNAc(b1-4)GlcNAc(b1-4)GlcNAc(b1-4)GlcNAc(b1-4)GlcNAc(b1-4)GlcNAc(b1-4)GlcNAc(b1-4)GlcNAc
Procedure, shortened: as §1

[13] = molecular target: HexA(a1-3)GalNAc4S(b1-4)GlcA(b1-3)GalNAc4S
Procedure, shortened: as §1

[14] = molecular target: HexA(a1-3)GalNAc4S(b1-4)GlcA(b1-3)GalNAc4S(b1-4)GlcA(b1-3)GalNAc4S(b1-4)GlcA(b1-3)GalNAc4S(b1-4)GlcA(b1-3)GalNAc4S(b1-4)GlcA(b1-3)GalNAc4S(b1-4)GlcA(b1-3)GalNAc4S
Procedure, shortened: as §1

[15] = molecular target: HexA(a1-3)GalNAc4S(b1-4)IdoA(a1-3)GalNAc4S
Procedure, shortened: as §1

[16] = molecular target: HexA(a1-3)GalNAc4S(b1-4)IdoA(a1-3)GalNAc4S(b1-4)IdoA(a1-3)GalNAc4S(b1-4)IdoA(a1-3)GalNAc4S(b1-4)IdoA(a1-3)GalNAc4S(b1-4)IdoA(a1-3)GalNAc4S(b1-4)IdoA(a1-3)GalNAc4S
Procedure, shortened: as §1

[17] = molecular target: HexA(a1-3)GalNAc6S(b1-4)GlcA(b1-3)GalNAc6S
Procedure, shortened: as §1

[18] = molecular target: HexA(a1-3)GalNAc6S(b1-4)GlcA(b1-3)GalNAc6S(b1-4)GlcA(b1-3)GalNAc6S(b1-4)GlcA(b1-3)GalNAc6S(b1-4)GlcA(b1-3)GalNAc6S(b1-4)GlcA(b1-3)GalNAc6S(b1-4)GlcA(b1-3)GalNAc6S
Procedure, shortened: as §1

HexA2S(a1-4)GlcNS6S = molecular target: HexA2S(a1-4)GlcNS6S
Procedure, shortened: as §1

[19] = molecular target: HexA6S(a1-4)GlcNS6S(a1-4)IdoA2S(a1-4)GlcNS6S
Procedure, shortened: as §1

[20] = molecular target: HexA6S(a1-4)GlcNS6S(a1-4)IdoA2S(a1-4)GlcNS6S(a1-4)IdoA2S(a1-4)GlcNS6S(a1-4)IdoA2S(a1-4)GlcNS6S(a1-4)IdoA2S(a1-4)GlcNS6S(a1-4)IdoA2S(a1-4)GlcNS6S(a1-4)IdoA2S(a1-4)GlcNS6S
Procedure, shortened: as §1

Man(a1-2)Man = molecular target: Man(a1-2)Man
Procedure, shortened: as §1

[21] = molecular target: Man(a1-2)Man(a1-2)Man(a1-3)[Man(a1-2)Man(a1-3)[Man(a1-2)Man(a1-6)]Man(a1-6)]Man(b1-4)GlcNAc(b1-4)GlcNAc
Procedure, shortened: as §1

[22] = molecular target: Man(a1-2)Man(a1-2)Man(a1-3)[Man(a1-2)Man(a1-6)[Man(a1-3)]Man(a1-6)]Man(b1-4)GlcNAc(b1-4)GlcNAc
Procedure, shortened: as §1

[23] = molecular target: Man(a1-2)Man(a1-2)Man(a1-3)[Man(a1-3)[Man(a1-6)]Man(a1-6)]Man(b1-4)GlcNAc(b1-4)GlcNAc
Procedure, shortened: as §1

[24] = molecular target: Man(a1-2)Man(a1-3)[Man(a1-2)Man(a1-6)[Man(a1-3)]Man(a1-6)]Man(b1-4)GlcNAc(b1-4)GlcNAc
Procedure, shortened: as §1

[25] = molecular target: Man(a1-2)Man(a1-3)[Man(a1-3)[Man(a1-6)]Man(a1-6)]Man(b1-4)GlcNAc(b1-4)GlcNAc
Procedure, shortened: as §1

Man(a1-3)Man = molecular target: Man(a1-3)Man
Procedure, shortened: as §1

[26] = molecular target: Man(a1-3)Man(a1-6)[Man(a1-3)]Man(b1-4)GlcNAc(b1-4)GlcNAc
Procedure, shortened: as §1

Man(a1-3)Man(b1-4)GlcNAc = molecular target: Man(a1-3)Man(b1-4)GlcNAc
Procedure, shortened: as §1

Man(a1-3)[Man(a1-6)]Man = molecular target: Man(a1-3)[Man(a1-6)]Man
Procedure, shortened: as §1

[27] = molecular target: Man(a1-3)[Man(a1-6)]Man(a1-6)Man(b1-4)GlcNAc(b1-4)GlcNAc
Procedure, shortened: as §1

[28] = molecular target: Man(a1-3)[Man(a1-6)]Man(a1-6)[Man(a1-3)]Man
Procedure, shortened: as §1

[29] = molecular target: Man(a1-3)[Man(a1-6)]Man(a1-6)[Man(a1-3)]Man(b1-4)GlcNAc(b1-4)GlcNAc
Procedure, shortened: as §1

[30] = molecular target: Man(a1-3)[Man(a1-6)]Man(b1-4)GlcNAc(b1-4)GlcNAc
Procedure, shortened: as §1

[31] = molecular target: Man(a1-3)[Man(a1-6)]Man(b1-4)GlcNAc(b1-4)[Fuc(a1-6)]GlcNAc
Procedure, shortened: as §1

Man(a1-6)Man = molecular target: Man(a1-6)Man
Procedure, shortened: as §1

[32] = molecular target: Man(a1-6)Man(b1-4)GlcNAc(b1-4)GlcNAc
Procedure, shortened: as §1

Man(b1-4)GlcNAc = molecular target: Man(b1-4)GlcNAc
Procedure, shortened: as §1

[33] = molecular target: Man(b1-4)Man(b1-4)Man(b1-4)Man
Procedure, shortened: as §1

[34] = molecular target: Man(b1-4)Man(b1-4)Man(b1-4)Man(b1-4)Man
Procedure, shortened: as §1

Measured: glycan array binding signal (z-score)

B1: MIC4-A5 (Toxoplasma gondii), Q9XZH7 (protein)
chain: SPDFHDEVECVHTGNIGSKAQTIGEVKRASSLSECRARCQAEKECSHYTYNVKSGLCYPKRGKPQFYKYLGDMTGSRTCDTS
-0.312: [6]
-0.319: [20]
-0.321: [31]
-0.315: GlcNAc(b1-3)Fuc
-0.322: [2]
-0.302: GlcNAc(b1-4)Fuc
-0.317: [26]
0.308: [3]
-0.323: all other assays above
